Reference: PubChem BioAssay (NCI)
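Each compound was tested at five concentrations against cells in 96-well plates for 48 hours. GI50 is the concentration that inhibits growth by half. Definition used: TGI = concentration required for complete inhibition of growth.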

System: NCI-H322M lung
Experiment: DTP human tumour cell line panel, 48 h

| SMILES | GI50 [µM] | TGI [µM] |
| --- | --- | --- |
| O=C(COc1ccc(NC(=O)Nc2ccc(Cl)cc2)cc1)N/N=C/c1ccccc1 | 3.31 | > 100 |
| Cn1cc(NC(=O)c2cc(NC(=O)c3ccc(/C=C/c4ccccc4)cc3)cn2C)cc1C(=O)NCCCN1CCOCC1 | > 28 | > 28 |
